Consider one protein from article PMC11910115, “UXT oligomerization is essential for its role as an autophagy adaptor” (iScience, 2025).

This series concerns the molecule itself. Nature of the series: SEC; purified, refolded recombinant 6×His-sfGFP-UXT on a size-exclusion column.

B1: 6×His-sfGFP-UXT (natural protein)
chain: not shown
notes: UXT, human; expected molecular weight of the tagged protein 46.9 kDa; Plasmid pRSF-6×His-sfGFP-UXT; also called recombinant 6×His-sfGFP-UXT; purified UXT; not shown: 6×His, N-terminal, kept; superfolder GFP, N-terminal, kept
For B1, the binding result is “binds”.
